Laboratory results as given in PMC12136788.
Some of the results follow.

T1: UNK ZnF1-3 (human, UniProt Q9C0B0 31-174)
T1 sequence: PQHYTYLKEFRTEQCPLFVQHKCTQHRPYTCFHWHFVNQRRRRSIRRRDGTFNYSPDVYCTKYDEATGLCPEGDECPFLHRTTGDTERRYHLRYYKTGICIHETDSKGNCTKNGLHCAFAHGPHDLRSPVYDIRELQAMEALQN

B1: 13601314_13601434_7285_CDS_ENSG00000038219_ENST00000040738|human|control|control (ssRNA)
RNA: GGGAGUUCUACAGUCCGACGAUCGCUCACUGCCAACACGGGACCCGGUUCUUUGCCUCCCCUGACUGGCCCAGGACACCGACAGUUAUUCUCAGCAAUUAGGCUGGGCAUGGGGACCUUGUGCUUGCUCACUUCUGUGGCUGACAACAGAGGAUUGAGCAUCA
B2: chr11:100882373:100882374:+_ENSMUSG00000019302_ENSMUST00000044721|mus_mus|mus_mus_mus_hu_True|1_1 (ssRNA)
RNA: GGGAGUUCUACAGUCCGACGAUCUUCCUGGUUUGUGUUGAUUUCCUUCAGUUCAUUUUCAAUCUUCUCAAAAUUGGCCUCUAAGUCAAUCAUGUCCCGGGGGAAGGGAACCUCUGGGUUUUCACCGGUGUCCAUAAUUGGGAUCAACAGAGGAUUGAGCAUCA
B3: chr17:45761549:45761550:+_ENSG00000108424_ENST00000290158|hu_mus|FALSE|FALSE (ssRNA)
RNA: GGGAGUUCUACAGUCCGACGAUCGCUCAGGCAGGGAGGGGAUGAAAGGAGCACGGGAGAAACCUAAGCCAAUACCUUUGACUACAAUGGAAAUGGAAAUGGGAAUGAGGGUCUUGUGUUUCUUCCACACUACCAGGAAGCAAUCAACAGAGGAUUGAGCAUCA
B4: chr4:116827845:116827846:-_ENSMUSG00000047675_ENSMUST00000140226|mus_mus|FALSE|FALSE (ssRNA)
RNA: GGGAGUUCUACAGUCCGACGAUCACAAGUCCUUGCAUUGGCAAGUGGUGUACAGGUGGCCAAGACGGCCAUAACCACGCCUAAGGAUACGUUUUCAUCACCCUAGUUACCUCCAGAAAAAGCCAGACCCCCCCUAACACAGGACAACAGAGGAUUGAGCAUCA
B5: chr2:232320318:232320319:-_ENSG00000115053_ENST00000322723|hu_hu|hu_hu_hu_mus_True|38_108 (ssRNA)
RNA: GGGAGUUCUACAGUCCGACGAUCACUGUUGAAGUCUACAAAACCAAACCCUUUGGAAGAACCAGUUUCCCGAUCAGUGACUAUUCUUGCACGAACAGAGCCGUCAAAUGAUUCUUUUAAGGUCUCUUCAGUGGUAUCCUCAGACAACAGAGGAUUGAGCAUCA
B6: chr16:94690093:94690094:+_ENSMUSG00000040785_ENSMUST00000117648|mus_hu|mus_mus_mus_hu_True|18_108 (ssRNA)
RNA: GGGAGUUCUACAGUCCGACGAUCGGGGACUCCUGUGGGACACACAGCCUCGAUUCCAGGGGGAAAAAGUCUUAGUCGAUACUAAUUAAAAAGUGUUAAUGAUUUUUGAAAAUCAGAUGUAGAUUAAAAAAGAUGAAAAGCAAACAACAGAGGAUUGAGCAUCA
B7: chr17:74891714:74891715:+_ENSMUSG00000024072_ENSMUST00000024873|mus_mus|motif|central (ssRNA)
RNA: GGGAGUUCUACAGUCCGACGAUCAGAUUCUUUGAUGAAAUCUCCGCUUACACCGAGGUUUAAUUUGACAUCUGGAGCUGCGGUAGAACCGCUGAGAUCUUCCGCGUCCGCCGAAGACACAAAGGUGAAGUCCCCGUUGGCAGGCAACAGAGGAUUGAGCAUCA
B8: chr17:13104604:13104605:-_ENSMUSG00000057388_ENSMUST00000079121|mus_hu|FALSE|FALSE (ssRNA)
RNA: GGGAGUUCUACAGUCCGACGAUCAUAGAUUCUCUGAGGUUCCCGUAGAACCACACCACCUUCUGUCAUGGCACUUUGUAGUCGUUUCAUCGAGUCUGAGGCUGCCUCCCACGGGGUUGGUUGGUAGACCAUGAAGUUGAUUCCCAACAGAGGAUUGAGCAUCA
B9: 57883305_57883743_2155_CDS_ENSG00000047315_ENST00000314595|human|control|control (ssRNA)
RNA: GGGAGUUCUACAGUCCGACGAUCGUAUGUGUUUCUAGGGGACUGGUUAUGAUCAGGAAAGGGAAUAAUAGAUGCACAGACACCAAGGAUCAUUGAGGGAUGAAUCUCACAGUGUGUAUAUGUGGAACAAUAAGCUACUUCUUUCAACAGAGGAUUGAGCAUCA
B10: chr1:167409666:167409667:+_ENSMUSG00000026568_ENSMUST00000027853|mus_hu|FALSE|FALSE (ssRNA)
RNA: GGGAGUUCUACAGUCCGACGAUCUUCUUGGUUAUAUCUCCAAAUACGAAAAAGCUGAGAGGCUCCUGCUGCCCCCACAAAGAAAUUAACAGCAAACAGACUCCAAUUUUUUGGAAUAAUUACAAGUGAGUAUCUUGACCAAAUCAACAGAGGAUUGAGCAUCA
B11: chr7:65705844:65705845:+_ENSG00000169902_ENST00000304842|hu_mus|hu_hu_hu_mus_False|78_88 (ssRNA)
RNA: GGGAGUUCUACAGUCCGACGAUCAAACGGAUCUUUGUUACAUAAAUAAGGGGCUGGCUCCCCAUGCUUAACAAUGACCUCCAGAAGGAAGGCUUGCAUGGCAGAAUCUAGCACUUCAUCUGUGACACCCGCCUCAUCCAAGCGCAACAGAGGAUUGAGCAUCA
B12: chr2:119839360:119839361:+_ENSMUSG00000033902_ENSMUST00000066058|mus_mus|FALSE|FALSE (ssRNA)
RNA: GGGAGUUCUACAGUCCGACGAUCGCCAUCAGCACAGCCACAGAAGAUGUAUUCUUGGGUGACAGAGAUGCAGUGGGCCACAGUGGUCCUUAGCUCCACCCAUUUGUCCAGAAGCCUGCGAUCGCUGAACUCGCACAGCAGCCCCAACAGAGGAUUGAGCAUCA
B13: 73725471_73725591_98_5pUTR_ENSMUSG00000022105_ENSMUST00000022701|mouse|control|control (ssRNA)
RNA: GGGAGUUCUACAGUCCGACGAUCAGCAGCCGAGGGAGGCGCGCGGGGAGGCGGGCGGGCGCGCGCGCACGCCGGGCACGCCCCGUCCUCACCCGACUCCCGUUACAAAAAUAAUGGGAACGUCCCCCGAGGAAAACCGGACGCCAACAGAGGAUUGAGCAUCA
B14: chr14:89307221:89307222:+_ENSG00000165533_ENST00000346301|hu_mus|hu_hu_hu_mus_False|28_28 (ssRNA)
RNA: GGGAGUUCUACAGUCCGACGAUCUCCUGUUUGGUUAGUGCCAGGGAGCUUCAAAGAUGUGCCAGGGCGUGGGACCUGAGCAAUAGCAUUUUCAUCCAGGAUCAUUUCUGCAAUUCCUUCCUGGUCCACAUCAAUUUCAUCUAUCAACAGAGGAUUGAGCAUCA
B15: chr7:66532262:66532263:+_ENSMUSG00000025326_ENSMUST00000107537|mus_hu|motif|central (ssRNA)
RNA: GGGAGUUCUACAGUCCGACGAUCUCCUUGAACUAAGCUGUAGAGAACAGUGAUUCUUCGUUCACUGUACAUGCGAAUUCGGUUGUCAUAAUAUAAUCCCAAAUUCUUUGUGACAGCAUUCAAUAUAAAGGGACAUGUCAUAAACAACAGAGGAUUGAGCAUCA
B16: chr2:32526493:32526494:+_ENSG00000119820_ENST00000437765|hu_hu|motif|central (ssRNA)
RNA: GGGAGUUCUACAGUCCGACGAUCGAUCCAACCACCAAAAGUACAGGGGCUAUUACAAUGAGAGGAAGUAAUGAAUAUCCGGUAACUCCAAGGACUUGGCCAUAUGCAACUUCUCCACCAAGAACUCUGGCCAGUAAGAAAAUUCAACAGAGGAUUGAGCAUCA
B17: chr13:76104392:76104393:-_ENSG00000188243_ENST00000355801|hu_hu|motif|central (ssRNA)
RNA: GGGAGUUCUACAGUCCGACGAUCAUACUUAAGAGAUCUGCAAGUGUCUGAGCUCACAGCCAUACCCAGUUUCCACUGAAAAUCGGCAAGCUGGUUGGUGACAUCGGACUUAGCAUCCAGCGGCGGCUCGCUGGACGCCUCCAUCAACAGAGGAUUGAGCAUCA
B18: 80526068_80529710_987_CDS_ENSG00000141568_ENST00000335255|human|control|control (ssRNA)
RNA: GGGAGUUCUACAGUCCGACGAUCAUUUUUAGUGAUGUGUGUAUAAAUCCCGUUCAGGGUGAGCUGUUUGUCGGGAGCCAUCGUAAUCGCCUGAACUAUCAGCUGCGCGUAGGAGUAAGGCGGCUUUGAAUCAUCCUUCGGGCUCAACAGAGGAUUGAGCAUCA
B19: chr3:176767854:176767855:-_ENSG00000177565_ENST00000430069|hu_hu|hu_hu_hu_mus_False|18_28 (ssRNA)
RNA: GGGAGUUCUACAGUCCGACGAUCGACAUCCUUGUUACUGGGCACGUCCUGCCCUCCUUCCCGUAUGCAGUGUCUAAGCACGAGCUGCGUAGGGCCACUCGUGCUGUUCUCACUAAGAUUCCAUAUUCUUGCCGUGGAGUCUCCCAACAGAGGAUUGAGCAUCA
B20: chr4:76721835:76721836:+_ENSG00000138768_ENST00000264904|hu_mus|hu_hu_hu_mus_True|58_78 (ssRNA)
RNA: GGGAGUUCUACAGUCCGACGAUCGUUUGGCUGGGGUUUCUGAGACGCUCUGGAAUAAACUCAUGUUUUGCUAAUAAUCCUAGUUUCCUCUAUGAAAUUCUCUUUGCCAAUCCUCUUCUCUAUUAGUUGCUUUAGUUUCUCUUUCAACAGAGGAUUGAGCAUCA
B21: chr4:95690885:95690886:+_ENSMUSG00000028572_ENSMUST00000156910|mus_mus|mus_mus_mus_hu_False|18_58 (ssRNA)
RNA: GGGAGUUCUACAGUCCGACGAUCUUUAGAAAAUGUUAAAUACCAUGCUAAAAUAUUUUCAAAGGCUUAUUUUAUUUUACUAAAAGACACAGGCAAGCAGACACUACAAGAAUAUAUAAAUACAAACCUCAACAAUAUAACUGUCAACAGAGGAUUGAGCAUCA
B22: chr5:21408736:21408737:-_ENSMUSG00000042453_ENSMUST00000161356|mus_hu|mus_mus_mus_hu_False|48_48 (ssRNA)
RNA: GGGAGUUCUACAGUCCGACGAUCGUUGACAGAGUUGUAGAUGGUGGCUUCAUGGAACUGGAAAGGGGAGCAGCCAAUGCUGUUAGAAGAGGAAGGUAGGCACUGGGUCUGUACGAGCUGCCAGGAAUCCGAUCUUGCAUCCUUCAACAGAGGAUUGAGCAUCA

What follows are binders tested against T1, UNK ZnF1-3 (assay: nsRBNS (natural sequence RNA bind-n-seq); RBNS binding buffer (assumed for nsRBNS): 25 mM Tris pH 7.5, 150 mM KCl, 3 mM MgCl2, 0.01% Triton X-100, 500 ug/ml BSA, 20 U/ml SUPERase-In, 4 C; UNK is unkempt and MSI1 is Musashi-1; names of the RNAs are library labels; protein concentration not given here; high values mean tight binding).

| Binder | binding signal [enrichment R] |
| --- | --- |
| B1 | 1.02 |
| B2 | 0.641 |
| B3 | 1.47 |
| B4 | 0.979 |
| B5 | 0.676 |
| B6 | 2.26 |
| B7 | 0.728 |
| B8 | 0.75 |
| B9 | 1.73 |
| B10 | 1.52 |
| B11 | 0.686 |
| B12 | 1.05 |
| B13 | 0.958 |
| B14 | 0.875 |
| B15 | 0.506 |
| B16 | 1.73 |
| B17 | 0.457 |
| B18 | 1.05 |
| B19 | 0.448 |
| B20 | 0.443 |
| B21 | 1.87 |
| B22 | 1.68 |
